Out of some 310,000 compounds screened, about 14,000 (4.5%) showed an effect of 50% or more. The effect is printed as a negative number. The list shows a part of the results.
What follows are compounds tested against human ether-à-go-go-related gene (hERG) potassium channel (human, UniProt Q12809) (assay: primary screen, population patch clamp on CHO cells stably expressing hERG).
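Also: peak tail current of the secondary pulse compared with the same well before compound.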

Sequence of human ether-à-go-go-related gene (hERG) potassium channel (Q12809 whole entry, looked up): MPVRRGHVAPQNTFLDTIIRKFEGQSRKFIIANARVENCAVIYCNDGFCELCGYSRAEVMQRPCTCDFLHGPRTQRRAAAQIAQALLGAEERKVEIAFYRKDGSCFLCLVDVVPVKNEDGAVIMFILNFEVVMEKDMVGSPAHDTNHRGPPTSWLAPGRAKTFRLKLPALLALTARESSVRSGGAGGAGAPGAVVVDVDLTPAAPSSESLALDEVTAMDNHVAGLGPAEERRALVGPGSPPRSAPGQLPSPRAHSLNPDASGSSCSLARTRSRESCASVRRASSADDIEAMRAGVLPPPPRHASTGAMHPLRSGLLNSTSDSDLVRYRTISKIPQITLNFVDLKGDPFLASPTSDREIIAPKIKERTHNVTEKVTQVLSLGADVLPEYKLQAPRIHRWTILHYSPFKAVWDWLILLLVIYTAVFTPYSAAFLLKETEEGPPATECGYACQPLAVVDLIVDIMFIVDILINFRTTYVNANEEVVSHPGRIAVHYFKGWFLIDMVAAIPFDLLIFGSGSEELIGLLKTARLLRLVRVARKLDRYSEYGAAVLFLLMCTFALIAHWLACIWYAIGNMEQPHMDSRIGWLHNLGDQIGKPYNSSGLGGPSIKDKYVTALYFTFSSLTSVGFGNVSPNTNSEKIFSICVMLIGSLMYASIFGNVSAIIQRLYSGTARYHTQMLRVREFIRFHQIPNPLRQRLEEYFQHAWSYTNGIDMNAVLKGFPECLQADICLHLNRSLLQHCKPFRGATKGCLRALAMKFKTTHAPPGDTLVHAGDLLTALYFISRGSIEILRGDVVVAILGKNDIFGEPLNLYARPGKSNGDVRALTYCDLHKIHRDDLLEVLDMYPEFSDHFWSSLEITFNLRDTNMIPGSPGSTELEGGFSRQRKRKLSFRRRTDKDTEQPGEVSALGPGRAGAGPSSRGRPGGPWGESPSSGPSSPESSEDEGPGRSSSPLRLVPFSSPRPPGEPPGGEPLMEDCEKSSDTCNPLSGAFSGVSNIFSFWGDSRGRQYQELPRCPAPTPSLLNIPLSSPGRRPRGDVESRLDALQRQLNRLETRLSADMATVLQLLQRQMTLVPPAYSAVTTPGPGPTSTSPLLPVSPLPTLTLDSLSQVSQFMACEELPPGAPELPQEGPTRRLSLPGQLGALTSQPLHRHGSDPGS

| SMILES | hERG current change (%, negative = inhibition) at 10uM |
| --- | --- |
| O=C(CNCCN1CCOCC1)Nc1ccccc1Sc1ccccc1.O=C(O)C(=O)O | -29.7% |
| CN(C)CCNC(=O)c1coc(=O)c(Br)c1 | 10.6% |
| NC(=O)c1ccccc1NC(=S)NC(=O)CCc1ccccc1 | 11.4% |
| CCN1CCN(CCCN(Cc2ccco2)C(=S)Nc2cccc(Cl)c2C)CC1 | -61.2% |
| CCCCOC(=O)CSc1nnc(-c2ccc(Cl)cc2Cl)o1 | 3.67% |
| CC(c1nc2ccccc2c(=O)[nH]1)N1CCCN(S(=O)(=O)c2ccc(F)cc2)CC1 (stereo not shown) | -59.1% |
| Cc1ccccc1CS(=O)(=O)Cc1ccc(C(=O)NCCCN2CCCC2=O)o1 | 5.87% |
| CCOC(=O)c1c(NC(=O)Cn2ccsc2=N)sc(C)c1C.Cl | -10.9% |
| Cc1ccc(-c2nnnn2CS(=O)(=O)c2ccccc2)cc1 | -1.7% |
| Cc1cccn2c(=O)c3cc(C(=O)NCCN4CCOCC4)c(=N)n(CCN4CCOCC4)c3nc12 | 18.5% |
| CCCCNC(=O)N(CC)c1c(N)n(Cc2ccccc2)c(=O)[nH]c1=O | 18.1% |
| O=C1CC(c2cccc(Cl)c2)CC(O)=C1C=Nc1cccc(Cl)c1 (stereo not shown) | -0.437% |
| O=C1c2cccc3cccc(c23)C(=O)N1c1cccnc1 | 10.9% |
| CC(C)C[C@H](NC(=O)NC1CCCc2ccccc21)C(=O)O (stereo partly shown) | 16.2% |
| CCN(CC)CCCN1C(=O)C(=O)/C(=C(/O)c2cc(C)ccc2C)C1c1cccnc1 (stereo not shown) | 2.4% |
| Cc1ccc(S(=O)(=O)NCCC(=O)OCc2ccc([N+](=O)[O-])cc2)cc1C | -42.3% |
| Cc1ccc(C(C)C)c(OCCCCN2CCNCC2)c1.O=C(O)C(=O)O | -6.77% |
| CC(C)CC1NC(=O)N(CC(=O)N2CCN(S(=O)(=O)c3ccccc3)CC2)C1=O (stereo not shown) | 0.15% |
| CCC(=O)c1ccccc1OCCCn1cncn1 | -4.3% |
| CC(C)(C)OC(=O)N[C@@H](Cc1ccccc1)C(=O)N1CCC(C(=O)NCC(=O)O)CC1 | 3.7% |
| CCOc1ccc(NC(=O)COc2ccc(C(=O)N3CCC(C(N)=O)CC3)cc2OC)cc1 | 9.91% |
| COc1ccccc1S(=O)(=O)Nc1ccc2cn[nH]c2c1 | 11.3% |

| SMILES | hERG current change (%, negative = inhibition) at 10uM |
| --- | --- |
| c1ccc(C2=NOC(c3nnc(-c4ccccc4)o3)C2)cc1 (stereo not shown) | -33.1% |
| OC1CCCN(c2c3c(nc4cc(-c5cccc(Cl)c5)nn24)CCC3)C1 (stereo not shown) | -29.5% |
| S=C1NC2(CCCCCC2)N=C1c1ccccc1 | 9.23% |
| O=C(/C=C/c1ccco1)N/C(=C\c1ccccc1)C(=O)NCCc1nc2ccccc2[nH]1 | -46.3% |
| Cc1cc(C)c2c(=O)[nH]c(SCc3ccc([N+](=O)[O-])cc3)nc2n1 | -33.3% |
| CC(=O)Nc1ccc(S(=O)(=O)N(C)CC(=O)OC(C)C(=O)N(C)C2CCCCC2)cc1 (stereo not shown) | 8.67% |
| CC(=O)c1c(C)nn(CCC(=O)O)c1C | 8.63% |
| Cc1ccc(-n2ncc3c(NNC(=O)c4ccco4)ncnc32)c(C)c1 | 38.1% |
| CCOC(=O)C1CCCN(C(=O)c2ccccc2NC(=O)C2=C(C)OCCS2)C1 (stereo not shown) | 20.7% |
| CC(C)(C)C(=O)N1CCN(C(c2ccccc2)c2ccccc2)CC1 | -2.12% |
| Cc1cc(C)n(CC(O)COc2ccccc2C(=O)Nc2ccccc2)n1 (stereo not shown) | -26.1% |
| O=C(C1CCCN(C2CC(=O)N(c3ccc(F)cc3)C2=O)C1)N1CCCC1 (stereo not shown) | 29.4% |
| Cl.O=[N+]([O-])c1cc(S(=O)(=O)CCCN2CCOCC2)ccc1F | 14.9% |
| CCOC(=O)c1ccc(NC(=S)N2CCN(S(C)(=O)=O)CC2)cc1 | -0.876% |
| COCCn1c(SCC(=O)Nc2cccc(OC)c2)nc2c(oc3ccccc32)c1=O | -42.2% |
| O=C(Nc1nn(Cc2ccccc2F)cc1Br)c1cccs1 | -5.22% |
| CC(C)(CC(=O)O)CC(=O)Nc1ccccc1Oc1ccccc1 | -8.54% |
| Cc1c(C(=O)N(Cc2cccc(Br)c2)C2CCS(=O)(=O)C2)oc2ccccc12 (stereo not shown) | 5.56% |
| CCC(CC)C(=O)Nc1cc([N+](=O)[O-])ccc1F | -2.25% |
| O=C(CC1(C(=O)O)CCCC1)N1CCOCC1 | 0.116% |
| Cc1cc(C(=O)CSCCCn2c(=O)[nH]c3ccccc32)c(C)n1C | 7.93% |
